Measurements from ChEMBL document CHEMBL4888484, “Replenishing the malaria drug discovery pipeline: Screening and hit evaluation of the MMV Hit Generation Library 1 (HGL1) against asexual blood stage Plasmodium falciparum ,using a nano luciferase reporter read-out” (2022).
The campaign covered roughly 150,000 compounds. About 540 (0.36%) showed an effect of 50% or more. The list shows a part of the results.

System: Plasmodium falciparum
Test: Primary screen in NF54 nanoGlo assay, in single point, at 2uM, 72h; a lower Z score goes with more inhibition
Type: functional, Erythrocyte
Conditions: timepoint 72 hour

| SMILES | % Inhibition | Z score |
| --- | --- | --- |
| CCN1CCN(C(=O)COCc2nnc(C(=O)Nc3cccc(Cl)c3)s2)CC1 | -11% | 1.58 |
| Cc1ccsc1CNC(=O)c1ccc(OCc2ccccc2)cc1 | -2% | 0.43 |
| CCn1ccc(C(=O)N2Cc3ncccc3N3CCC[C@H]3C2)n1 | -1% | 0.17 |
| O=C(CCc1nc2ccccc2c(=O)[nH]1)N1CCOC2CCCCC21 (stereo not given) | -5% | 0.75 |
| C#CCN1CCN(C(=O)CN(CCC)CC(F)F)CC1 | 1% | -0.05 |
| CCN1C(=O)[C@](C)(C(=O)Nc2ccc(F)cc2F)Oc2cccnc21 | -8% | 1.44 |
| COCC(=O)NC1C2CCCN(c3cc(C(C)(C)C)nc(C(C)C)n3)C2C1(C)C (stereo not given) | -9% | 1.17 |
| CN1CCN([C@H]2CN(C(=O)c3cccc(N(C)C)c3)C[C@@H]2O)CC1 | -4% | 0.51 |
| CC(C)[C@@](C)(O)CNS(=O)(=O)C1CC1 | -11% | 1.56 |
| CNc1cc(C(=O)N[C@H]2COC[C@@H]2OC)ccn1 | -14% | 2.07 |
| O=C(c1ccccc1OC(F)F)N1CCN(Cc2ccc[nH]2)CC1 | -2% | 0.22 |
| CN1CCN(Cc2ccc3c(c2)CCO3)C[C@@H]1CCO | -2% | 0.22 |
| O=C(NCC1(C2CC2)CC1)N1CCOCC1CC(O)c1ccco1 (stereo not given) | -8% | 1.13 |
| CCOc1ncccc1C(=O)N(C1CCCC1)[C@H]1CCS(=O)(=O)C1 | 2% | -0.19 |
| CC(C)[C@H]1C(=O)NCCN1S(=O)(=O)c1ccnn1C | -8% | 1.55 |
| Cc1nccn1-c1cc(CNC(=O)Cc2cc(Cl)c3c(c2)OCCCO3)ccn1 | -4% | 0.58 |
| CCN(CC)C(=O)C1=CC(c2ccco2)=NS(=O)(=O)N1C | -14% | 2.61 |
| O=C1c2cc(Cl)c(Cl)cc2C(=O)N1Cc1nc2ccccc2s1 | -5% | 0.87 |
| C=CCCC(=O)NCCn1cc(C(=O)Nc2cccc(OC)c2)nn1 | -9% | 1.1 |
| Cc1nn(C)c(C)c1CCN(C)C(=O)Nc1ccc2c(c1)OCO2 | -15% | 1.46 |
| CCC1CC(C)CN1C(=O)C(C)Cc1c(C)n[nH]c1C (stereo not given) | -5% | 0.65 |
| CC(NC1CCN(C)C1=O)c1nc2ccccc2n1C(C)C (stereo not given) | 2% | -0.27 |
| CC(C)(C)CN1CCCC(N2CC3CCCC3C2C(N)=O)C1=O (stereo not given) | -11% | 1.42 |
| CN(C)CCNC(=O)[C@H]1CCCN(C(=O)c2nnc(C(=O)Nc3ccccc3)s2)C1 | -24% | 2.11 |
| CC(C)[C@H](N)C(=O)NCc1nc(Cn2cnc3ccccc32)no1 | 3% | -0.32 |
| CC(C)(O)CN1CCN(C(=O)c2ccccc2-n2cnnn2)CC1 | 5% | -0.69 |
| Cc1sc(-c2ccno2)cc1S(=O)(=O)NCc1cccs1 | -3% | 0.28 |
| COc1ccc(S(=O)(=O)C(F)(F)C(F)(F)C(F)(F)F)cc1N | -46% | 5.37 |

| SMILES | % Inhibition | Z score |
| --- | --- | --- |
| Cn1cnnc1Cn1c(=O)c2ccccc2c2ccccc21 | -7% | 1.15 |
| COc1ccc(C(=O)N2CC(=O)N3CCc4ccccc4[C@@H]3C2)cc1OC | -11% | 1.54 |
| Cc1cccc(CN(Cc2ccccn2)C(=O)Cn2c(C)cc(O)cc2=O)c1 | 35% | -0.56 |
| CC[C@H](O)CN(CCN1CCOCC1)c1ccccc1 | -1% | 0.11 |
| COc1ccc(NC(=O)CC(=O)N(C)C[C@H](O)CO)c(OC)c1 | 1% | -0.15 |
| CC(C)NC(=O)NCC(C)(C)c1ccsc1 | -12% | 2.23 |
| CNC(=O)[C@H]1CN(Cc2cccnc2)C[C@@H]1NC(=O)c1cc(C)on1 | -1% | 0.1 |
| COCCC1(C(=O)NC[C@@H]2OCCc3sccc32)CCCC1 | -13% | 1.84 |
| O=C(c1nn(-c2ccc(Cl)cc2Cl)c2c1CCC2)N1CC[C@@](F)(CO)C1 | -2% | 0.31 |
| CC(=O)Nc1ccc2nc(NCc3ccc(N(C)C)nc3)sc2c1 | -12% | 1.79 |
| Cc1cnn(CC(=O)NCc2ccc3c(n2)CCCC3)c1 | 3% | -0.32 |
| Cc1c(C(=O)NC[C@H]2C(C)(C)C2(F)F)c2ccccc2[nH]c1=O | 0% | 0.01 |
| O=C(CCOc1ccccc1)NCC1(CO)CCOCC1 | 0% | 0.05 |
| CC(C)(C)N(CC(N)=O)Cc1cnc(C2CCCC2)s1 | -1% | 0.18 |
| CCN1CCN(c2nc3c(s2)CN(Cc2ccccn2)CC3)CC1 | 5% | -1.07 |
| Cc1cccnc1C[C@H](C)NC(=O)c1ccc2oc(-c3cccc(F)c3)nc2c1 | -14% | 1.32 |
| CC(C)c1ccccc1S(=O)(=O)N1CCNC[C@@H]1C | -2% | 0.3 |
| Cc1nnsc1C(=O)N1CCn2nc(CCC(=O)NC3CC3)cc2C1 | -11% | 1.56 |
| Cc1cccc2nc(CN(C)C(=O)CCCn3cncn3)[nH]c12 | 8% | -1.51 |
| Cc1ccc(C)c([C@H](C)N(C)C(=O)c2ccc3cnccc3n2)c1 | -9% | 1.29 |
| O=C1CCCN1CCCN1C(=O)[C@H]2CN(Cc3ccc(Br)cc3)C[C@H]2C1=O | -7% | 0.88 |
| CCCNC(=O)C1CCN(c2c(C(=O)N3CCCC3)cnc3snc(C)c23)CC1 | -10% | 1.47 |
| CCOc1cc([C@H]2Nc3ccccc3C(=O)N2c2ccccc2)ccc1OCc1ccccc1Cl | 5% | -0.57 |
| COc1ccc([C@H]2C[C@@H](c3cccc(Br)c3)Nc3ncnn32)cc1 | 5% | -0.76 |
| CC[C@H](C)Cc1nc(CNC2CC2)n(CCO)n1 | 3% | -0.45 |
| CCc1ncnc(N[C@@H]2CNc3c(c(C)nn3C)C2)c1F | -3% | 0.61 |
| CN(CCCNC(=O)C1CCC1)C(=O)c1cccc2cc[nH]c12 | 7% | -1.09 |
